This is one part of the list.

The assay concerns PfAP2-HC AP2 domain (GST-tagged). As to the kind of experiment: gcPBM binding intensity (ln(normalized median fluorescence intensity)); higher = stronger DNA binding. In a few lines: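 Plasmodium falciparum DNA-binding domains carrying a GST tag were expressed in E. coli and applied for 1 h, at about 25 μg on average, to an Agilent 4 × 180k array. The array held primer-extended double-stranded 36-bp intergenic genomic probes together with negative controls, and binding took place in 1× PBS with 1% milk, 0.2 mg/ml BSA, 0.5% salmon testes DNA and 0.03% Triton X-100. An Alexa488 anti-GST antibody detected bound protein, and the array was scanned at 488 nm. Binding intensity is taken as the highest Masliner-normalised natural-log median intensity across replicate spots of either probe orientation.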
Take “AGAAAAAAAAAAAAAAATAAAAAAATAAATAAATAA [GTGCAC_negctrl_site161]”: the “gcPBM binding intensity (ln)” value worked out at 9.34.
Then “ACTTAAATAATACATACACACATGTACTTACAGAAA [CACACA_site8458]”, with 9.8.
As for “CACAAATATATACATACACACATATATACACATATA [CACACA_site8024]”, the figure is 9.94.
Then “AAAACGCAGTTTAATATACACACCAAAAAAAAAAAA [CACACA_site3036]”, with 9.65; and “TTTGAGATGTGGTGTACACAAAATTAGGTACACATC [CACACA_site5773]”, with 9.74.
Turning to TATTAATTTCGGGAAGTGCATTATGTTTATAGAATA, the “gcPBM binding intensity (ln)” value is 9.34.
For “ATTATATAAGTACACAAACAAGTATGAGATTCAAAA [GTGCAC_negctrl_site119]”, the “gcPBM binding intensity (ln)” value amounted to 9.79.
Then “TGTTTTAAACTAATTTGTACATAGTTATTTATATTT [XGTACX_site7196]”, with 9.68; and “CCATATATTTGGTATAGTACTTTTTATTTTATTTCA [XGTACX_site8933]”, with 9.69; and “AATTGTTTTTTTTTCTTATTTTATGTTATACACACA [TGCATGCA_negctrl_site380]”, with 9.9.
Then “AAAAAAAAAAAAAACACATGCAGAAGAAAAAAAATA [TGCATGCA_site545]”, with 9.72; and “AAATGAACATATATGTGTACTTATATTTTTCTAAAT [XGTACX_site3388]”, with 9.75.
Then “ATATATTTTTCTTTACGTACGAAGCAAAATAACATT [XGTACX_site8145]”, with 9.52; and “AAAAAAAAAAAAAAAGTGCATATATAAATATTGTAT [GTGCAC_site9459]”, with 9.59; and “TCATTAAATGTTTAGGTGCATACTTTAATTTTTAAT [GTGCAC_site9906]”, with 9.59.
For the sequence “TAACTTTGGAGGAGCTGTACGATTATTTTGATCCTT [XGTACX_site2514]”, the “gcPBM binding intensity (ln)” value stood at 9.62.
“AAAAAATTTCAAATAACACACACTAATATAAATATG [CACACA_site6783]”: the “gcPBM binding intensity (ln)” value came out at 10.4.
Then “TTTAAAAAATAATATTGTACTATTCTCCCAATTTCT [XGTACX_site7079]”, with 9.46.
Turning to “TTTTTATATAATTTAACACACATTTCATATAAAAAA [CACACA_site3103]”, the “gcPBM binding intensity (ln)” value came out at 9.27.
In the case of “ATGTGAAAATAAGACACACTCAAAAGGTTTATATTA [CACACA_site4595]”, the “gcPBM binding intensity (ln)” value was determined as 9.78.
Then “ATATACTGTATGAAAGCACACATACTTATTACTAAC [CACACA_site9384]”, with 9.79.
“TGGGAAAAAATATATGCACACCCCCCAAAAAAAAAA [CACACA_site8696]”: the “gcPBM binding intensity (ln)” value amounted to 10.6.
As for “AAAAAATGTTATAAAAGTACATAATTTATCTACCAT [XGTACX_site3035]”, the figure is 9.6; as for “AATTCTTTATTATATGCACACGTACATATAATATAT [CACACA_site8621]”, 9.84.
As for “AAAAAAAAAAAAAAGTGTACCTTCAAAATAATATTG [XGTACX_site2844]”, the figure is 9.52; as for “ATAAATATAAAACACACACACATATTATATATATAT [CACACA_site3064]”, 10.3.
Then CTATATATAACCCATGTGCACTTTTTATGTACAATA, with 9.75; and “TCTTTCCTTATTAAAACACACAAATACATTATTTAA [CACACA_site2147]”, with 9.45; and “CCTTTTTCTACTTTCTCACACATATTAAGAATTATA [CACACA_site5621]”, with 9.55.
In the case of “AAAAAATGAAAAAACTGTACGCAATTTTGTTTTTAT [XGTACX_site2299]”, the “gcPBM binding intensity (ln)” value was 9.64.
As for “AAGTTTTTTTTTATCACACACAAAAAAAAAAATATA [CACACA_site1362]”, the figure is 9.9; as for “GTTCATAAAAATTTTTGTACCCATAAAATATTCCTC [XGTACX_site8611]”, 9.54; as for “GTAGGTGTTTTTGGTTGTACATATAAATATATATAC [XGTACX_site3380]”, 9.84.
Then “TTTTTTTTTTTTAATTGTACTTATTAAAAAAAGCAA [XGTACX_site8713]”, with 8.86; and “TTTCTTCTTCAATGTTGTACTTTTCTCTTTTCTTAA [XGTACX_site1017]”, with 9.66.
As for “GATATATATGTTCACACACACATGGAAATATATATA [CACACA_site4371]”, the figure is 10.1; as for “TTAAGATCCTAAAAAACACACAATTGCGAATAATAA [CACACA_site6005]”, 9.79.
As for “ATATCATAAAAAATGTGTACATATATGAACATATAA [XGTACX_site2239]”, the “gcPBM binding intensity (ln)” value was 9.6.
Then “GGAAATTAACAGAACACAATGTAACAATTTCTAACA [CACACA_negctrl_site1250]”, with 9.69; and “AGATAAATATATTGTAGTACAGGAGCATAAATATAT [XGTACX_site8267]”, with 9.84.
Then “TATTTTCATTATACTACTTCGAAGATACCCTTTTTT [CACACA_negctrl_site256]”, with 9.6; and “TATAAACATTAAAGGTGTACAATTTAATTTCAATTT [XGTACX_site2944]”, with 9.56.
Regarding “GTTCTTCCTTGTAAATGTACAAATACAAAATGTTCC [XGTACX_site6738]”, the “gcPBM binding intensity (ln)” value came to 9.58.
Then “CATTATTCTTTTAATATACACACTTTGTCTTTTCGC [CACACA_site2762]”, with 9.74; and ATATTATTATATATAGTGCATATTATTATTTTTATT, with 9.7.
Then “TCTCATAGTAAACACACACACACACCCACATATATA [CACACA_site5034]”, with 10.6.
Then “TATGCACTTTAGGGCAGTACGTCAACATTATCTTTA [XGTACX_site3382]”, with 9.52; and “CCTCATACGAAATATAAACACACATACAATAAATAA [CACACA_site8620]”, with 10; and “ATAAATTTTTTTTTTTTTTTTTTTTTTTTTTTTTTT [CACACA_negctrl_site508]”, with 9.23.
As for “ATTTTTTTCATAGACACACACAATATATCTGTTTCC [CACACA_site3023]”, the “gcPBM binding intensity (ln)” value was 10.5.
As for TGTTAAAATTATTTGGTGCACTTGTTTTACCTTATT, the figure is 9.74; as for “TATATTTATTATAACACACACATATAAATATTATAG [CACACA_site6726]”, 9.91.
Consider “TTTTTTTTTTTTCAATCACACATGTTTTAATTATTT [CACACA_site5532]”, for which the “gcPBM binding intensity (ln)” value is 9.66.
Then “TGTACGTTTTATAACACACACACAAAAAAAAAAAAA [CACACA_site3875]”, with 10.5; and “TGTAATAATATTTATGTGCACATATATTAAACTATA [GTGCAC_site9584]”, with 9.63.
Then “TCATTTCACAGACACACACACACAAGATATTTCCTT [CACACA_site7774]”, with 11.1.
As for “AAGATAAAATGATGCACACAAAAGGGTGTAATATAT [CACACA_site1706]”, the figure is 10.2.
Regarding “GAAGTTTTCTTAAAGATGCACTTTTTAAAAATAAAA [GTGCAC_site9941]”, the “gcPBM binding intensity (ln)” value turned out to be 8.97.
As for “TCTTCTTTTTTTTTTTTGTATTATTATAAATATTAT [CACACA_negctrl_site1668]”, the figure is 9.76.
Then “TTTTTTTTTTTTAATGCACACAATATATAATATGTA [CACACA_site3694]”, with 9.7; and AATATACAAATAAAGGTGCGAGATATTTTTACTTTT, with 9.82.
Then “ACAATATGCAAAAAGTGTACACATTCATTTATATAA [XGTACX_site1061]”, with 10.1; and “ATAAAAAAAGATGAACGTACATATATTTTAAAAATC [XGTACX_site5950]”, with 9.76.
“TATTAAATATATATTACATGCAAAAAAAAAAAACAA [TGCATGCA_site705]”: the “gcPBM binding intensity (ln)” value came to 9.76.
As for GTAAATATTTGTTGGGTGCTATCAATTATTTCAAAG, the figure is 9.57; as for “TTTTTTTTGAAGAATACATGCATATTTTCTATATTC [TGCATGCA_site43]”, 9.59; as for “ATATAAAATATGTATGAGGAATAAAATTAAAAAAAA [XGTACX_negctrl_site173]”, 9.83.
Then “CGGCACATTCTATATACACACATATAAATATATACA [CACACA_site566]”, with 9.71.
As for “TACAATTCGTAATACACACACATATAAATAAATATT [CACACA_site7720]”, the figure is 10; as for “TGCGGAAATAAGTGCACACATAGATATATGTATTTT [CACACA_site3689]”, 9.82; as for “ATATTATATATGTATAGTACATATTATAAGAAAAAT [XGTACX_site3457]”, 9.86.
Turning to “ATCTATATCTATAATACACACATCATAAAATATGTA [CACACA_site7230]”, the “gcPBM binding intensity (ln)” value amounted to 9.73.
As for “ATATATATTAATAATGCATGTGATATAAATTAATAT [TGCATGCA_site930]”, the figure is 9.75; as for “ATTTTATATATGTGTTGTACGGTGAACATTTTGATA [XGTACX_site6538]”, 9.68.
As for “ATATGTATAAATATAAATATATATATATATATATAT [CACACA_negctrl_site705]”, the figure is 9.78; as for “ACGTTAATATCTACAAGTACCCACATTAACAGGAAA [XGTACX_site2616]”, 9.67; as for “AAAAAAAACAGACACACACACATTCAATATAAAACA [CACACA_site41]”, 11.3.
Then “ATATCTTATATTATCACACACACACCCACAAAACAG [CACACA_site1464]”, with 11.5; and “ATGATATGGATAAATACACACAATATAATAATGGGT [CACACA_site4905]”, with 10.1; and “TATATAAACATCGGTAGTACACACATTCATGTATTT [XGTACX_site6443]”, with 9.88.
Take “GGATCATTTTTAAAGGAACACACAAAAAAAATTATA [CACACA_site8381]”: the “gcPBM binding intensity (ln)” value came to 9.71.
On to “ATAAATATGGCAGTACGTACGTATATTCATATTCAT [XGTACX_site8042]”, for which the “gcPBM binding intensity (ln)” value was determined as 9.75.
Then “ATTAAAAAAAAAAAAAAAAAACAAAAAAAAAAAAAA [CACACA_negctrl_site1187]”, with 8.67; and “TTTTTTTTTTTTTTTTGTACATATACATATATATAT [XGTACX_site1981]”, with 9.67.
Then “AGTAGCAAATATTAAGTGCATATTATATAATGTGTA [GTGCAC_site9546]”, with 9.72; and “GGTTTACCCTATAAATGTACTCATAAATTATATATA [XGTACX_site5771]”, with 9.32.
Then “ATACGAAATAGAAACACACATACAATAAATAAATAT [CACACA_site2017]”, with 10.5; and “TGTTCAGTATGGCACACACACAACAAAATAAAAAAA [CACACA_site4368]”, with 10.7; and “ATGGATTATTTTTAAACATGCAGTAGTGATGAAAAA [TGCATGCA_site346]”, with 9.68.
Consider “AAAAAAAACATACATACACACACATAAATATATATA [CACACA_site8864]”, for which the “gcPBM binding intensity (ln)” value stood at 11.4.

Values taken from the supplement of paper PMC11417369.
